The subject of series [1] is Mouse pancreatic acinar cells. Description: Toxicity study in pancreatic acinar cells (ATP levels, LDH leakage). It counts as cell-based. The following applies: 4 hours, 20-200 micromolar range. As for the experimental part:
Toxicity studies of the relevant compounds were also performed using by diluting the original ethanol stock 200 mM into the incubation medium for acinar cells (HEPES buffer, pH 7.4, as described by Navina et al) 600 micromolar stock solutions of the compounds in 0.3% ethanol in PBS. These were added to acinar cells at ⅓ dilutions starting at 200 micromolar. Mouse pancreatic acinar ATP levels and LDH leakage were measured over 4 hours and compared to control. Any number positive over control indicates % injury greater than control acini.
For orientation: LDH leaks from cells whose membrane has failed.

Series [2] deals with T1, recombinant human pancreatic lipase related protein 2 (hPLRP2) (Homo sapiens, UniProt P54317).
T1 sequence (P54317 18-469): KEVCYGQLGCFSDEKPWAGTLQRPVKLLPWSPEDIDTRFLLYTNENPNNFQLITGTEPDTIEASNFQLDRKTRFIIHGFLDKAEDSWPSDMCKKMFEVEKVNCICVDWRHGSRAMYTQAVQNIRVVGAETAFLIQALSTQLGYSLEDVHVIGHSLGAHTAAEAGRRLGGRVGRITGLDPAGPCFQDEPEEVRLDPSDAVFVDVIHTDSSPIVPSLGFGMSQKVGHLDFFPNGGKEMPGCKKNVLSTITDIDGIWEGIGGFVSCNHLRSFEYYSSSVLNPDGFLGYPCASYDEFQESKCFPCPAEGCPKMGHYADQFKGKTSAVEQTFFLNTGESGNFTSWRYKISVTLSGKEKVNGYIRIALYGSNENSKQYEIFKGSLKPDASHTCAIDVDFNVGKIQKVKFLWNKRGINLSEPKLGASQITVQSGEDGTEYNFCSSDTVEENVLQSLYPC
Kind of series: FFA generation by recombinant hPLRP2. The class given is biochemical. The following applies: % FFA generation; read-out: IC50 against hPLRP2. As for the experimental part:
(§1) The efficacy of a selection of the prepared analogs was explored to determine their ability to inhibit free fatty acid (FFA) generation from recombinant human lipases while retaining stability. To test these features, the analogs were dissolved in ethanol (200 mM stock) and further diluted to a 600 micromolar (0.3% ethanol) working stock in PBS. The agents were incubated with the recombinant enzymes in serial ⅓ dilutions spanning a range of 200 to 0.3 micromolar for 30 minutes, and then added to the substrate 1 mM glyceryl trilinoleate (GTL) in PBS, pH 7.4 along with cofactor colipase (CLPS; 0.5 mcg/ml).
(§2) These lipases form 15-30% of pancreatic lipases.

Series [3] concerns the target T2, carboxyester lipase (hCEL) (Homo sapiens, UniProt P19835).
T2 sequence (P19835 21-753): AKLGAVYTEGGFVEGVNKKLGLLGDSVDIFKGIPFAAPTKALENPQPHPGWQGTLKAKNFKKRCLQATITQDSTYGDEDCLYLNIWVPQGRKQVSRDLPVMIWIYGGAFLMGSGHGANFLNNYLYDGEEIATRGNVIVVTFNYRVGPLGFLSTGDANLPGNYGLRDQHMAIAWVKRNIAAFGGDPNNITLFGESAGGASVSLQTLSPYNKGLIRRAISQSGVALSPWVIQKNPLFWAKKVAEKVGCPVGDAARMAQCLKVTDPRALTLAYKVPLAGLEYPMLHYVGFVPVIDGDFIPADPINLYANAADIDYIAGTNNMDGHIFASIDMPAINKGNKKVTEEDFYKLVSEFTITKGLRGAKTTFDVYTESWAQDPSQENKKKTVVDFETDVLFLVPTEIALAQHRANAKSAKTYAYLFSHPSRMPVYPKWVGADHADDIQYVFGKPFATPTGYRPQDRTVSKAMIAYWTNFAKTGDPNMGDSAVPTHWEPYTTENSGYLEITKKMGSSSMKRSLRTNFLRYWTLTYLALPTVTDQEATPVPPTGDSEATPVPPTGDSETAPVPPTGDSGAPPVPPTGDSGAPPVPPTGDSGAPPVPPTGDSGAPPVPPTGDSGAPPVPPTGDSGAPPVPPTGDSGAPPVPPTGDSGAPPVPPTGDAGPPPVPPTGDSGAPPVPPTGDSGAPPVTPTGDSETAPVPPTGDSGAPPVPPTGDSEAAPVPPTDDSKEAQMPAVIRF
Kind of series: FFA generation by recombinant hCEL. The following applies: % FFA generation; read-out: IC50 against hCEL. The class given is biochemical. As for the experimental part: as §1, §2

The test system of series [4] is acinar cells incubated with GTL. Description: GTL induced acinar injury (LDH leakage). The class given is cell-based. The following applies: 10 micromolar.
Source text: as §2

The test system of series [5] is ob/ob mice with severe pancreatitis. Description: Caerulein-induced severe pancreatitis in obese ob/ob mice.
Where [6] appears, read: 20 mg/kg single intraperitoneal dose, ob/ob mice.

The record followed here is US12325690B2, “Compounds for the reducing lipotoxic damage” (Mayo Foundation for Medical Education and Research, priority 2017, dated 2025).

Bounds are passed on as bounds.

As for `CCCCCCCCCCC[C@@H](C[C@@H]1OC(=O)[C@H]1CCCCCC)OC(=O)[C@H](CC(=O)O)NC=O` [Compound 743], the LDH leakage entry in series [1] is “inducing LDH leakage”.
Take `CCCCCCCCCCC[C@@H](C[C@@H]1OC(=O)[C@H]1CCCCCC)OC(=O)[C@H](CNC=O)NC=O` [Compound 733]: in series [1], the LDH leakage result is recorded as “inducing LDH leakage”, the “acinar ATP levels” value is recorded as “drop in ATP” and the “toxicity to acinar cells” value was “toxic to acinar cells”.
Regarding `CCCCCCCCCCC[C@@H](C[C@@H]1OC(=O)[C@H]1CCCCCC)OC(=O)C(CCCNC=O)NC=O` (stereo partly shown) [Compound 734], the IC50 in series [2] and in series [3] was at most 2000 nM throughout.
Turning to `CCCCCCCCCCC[C@@H](C[C@@H]1OC(=O)[C@H]1CCCCCC)OC(=O)[C@H](CCCNC(=N)N)NC=O` [Compound 740], the IC50 in series [2] and in series [3] was at most 2000 nM throughout. Moreover, the “efficacy in reducing GTL induced acinar injury compared with orlistat” value in series [4] (LDH leakage) is on record as “more efficacious”. The “toxicity compared with orlistat” value in series [4] (acinar cells) is “less toxic”.
As for `CCCCCCCCCCC[C@@H](C[C@@H]1OC(=O)[C@H]1CCCCCC)OC(=O)[C@H](CC(C)C)NC=O` [orlistat], in series [5] (setting [6]), the 5 day survival is on record as 2/7; the “PD (pulse distention, shock)” value was found to be 171±21 μm; the UFAs worked out at 5.4 ± 0.9 mM; the “leucopenia (mice affected)” value is reported as 4/7. Further, in series [5] (setting [6]), the mortality is listed as 5/7, the serum calcium was 4.2 ± 0.3 mg/dL and the “temperature (hypothermia)” value amounted to 86±0.9 ° F. The “BUN (peak)” value in series [5] (20 mg/kg single intraperitoneal dose, ob/ob mice, caerulein pancreatitis) was found to be 50 ± 4.4 mg/dL. Further, the “fat necrosis (gross appearance)” value in series [5] (compared between 767 and orlistat treated animals) is on record as “much more extensive fat necrosis”.
